Assay results taken from PubChem BioAssay AID1346428 (National Center for Advancing Translational Sciences (NCATS), 2018).
Values joined by “and” are separate entries in the source; they are usually repeats but may differ in a detail not shown here. Identical values can stand only once. In all, about 48,000 compounds went through this assay and about 1,200 (2.5%) were called active. Roughly 2% stayed inconclusive and do not appear here.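 Rule for the calls: active = activation of at least 60% and not above a set upper limit (about 1 call in 100 departs from these limits); inconclusive = activation of 40% to 60%, or above that upper limit; inactive = activation under 40%.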 Some of the results follow.

Molecular target: Probable G-protein coupled receptor 32 (Homo sapiens) (UniProt O75388)
Experiment: qHTS for Agonists of Human Resolvin D1 Receptor DRV1; note: 0% is about no effect
Details: CHO-K1 GPR32 beta-arrestin PathHunter luminescence, 90 min; at 76.9 µM; active compounds read high; zero percent set by DMSO-only wells
How it was run: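 Agonism was scored by beta-Gal fragment complementation (chemiluminescent read, 1 h detection at ambient temperature) reporting beta-arrestin binding to GPR32 in engineered CHO-K1 cells. Compound treatment lasted 90 min at 37 C, normalized to a DMSO basal control.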

UniProt O75388, sequence (O75388 whole entry, looked up): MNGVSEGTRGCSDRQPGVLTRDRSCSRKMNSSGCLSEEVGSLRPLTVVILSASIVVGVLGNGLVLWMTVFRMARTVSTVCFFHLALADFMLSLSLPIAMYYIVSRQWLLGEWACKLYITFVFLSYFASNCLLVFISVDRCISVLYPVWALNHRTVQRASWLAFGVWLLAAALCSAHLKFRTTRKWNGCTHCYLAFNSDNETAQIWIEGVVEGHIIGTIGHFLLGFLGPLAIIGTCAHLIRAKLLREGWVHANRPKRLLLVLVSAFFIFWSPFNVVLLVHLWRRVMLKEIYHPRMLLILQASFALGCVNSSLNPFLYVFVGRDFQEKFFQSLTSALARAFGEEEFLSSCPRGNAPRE

activation, inactive:
Cc1cccc(CNC(=O)c2sc3ncnc(N(C)C4CCCCC4)c3c2C)c1 -13.5%
O=C(C1CC1)N1CCN(c2nc3c(F)cc(F)cc3s2)CC1 20.2%
CCN(CC)c1nc(-c2ccccc2Cl)c2cc(Br)ccc2n1 -8.72%
Cc1nn(-c2ccccc2)c2nc(C3CC3)cc(C(=O)NCc3ccccc3Cl)c12 -18.2%
CCc1ccc(NC(=O)c2sc3nc(C)c(Cl)c(C)c3c2NC(=O)c2ccccc2)cc1 -2.23%
COc1ccc(C)cc1NC(=O)CCNS(=O)(=O)c1cccc2nonc12 -15.1%
O=C(CO)[C@@H](O)[C@H](O)[C@@H](O)CO 7.28%
CSCCC(NS(=O)(=O)c1cccs1)C(=O)Nc1ccc(C)c(Cl)c1 (stereo not given) 39.6%
COC(=O)c1ccc(Cn2c(SCC(=O)NCc3ccccc3)nc3ccccc32)cc1 -6.47%
CCOc1ccc(CCNC(=O)c2ccc(CS(=O)(=O)c3ccccc3C)o2)cc1OCC 32.8%
CCOC(=O)c1cnc2ccc(C(=O)OC)cc2c1Nc1ccc(N2CCOCC2)cc1 4.21%
COc1ccc(Cl)cc1NC(=O)c1ncn(-c2ccccc2)n1 32.5%
COc1ccc(OC)c(NC(=O)Cc2c(C)n(C(=O)c3ccc(Cl)cc3)c3ccc(OC)cc23)c1 -19.9%
CC(=O)c1ccc(NC(=O)CSc2nnc(NC(=O)Nc3ccccc3)s2)cc1 2.86%
Cc1ccc(C)c(Cn2c(=O)n(Cc3ccco3)c(=O)c3oc4ccccc4c32)c1 5.2%
CCc1ccc(NC(=O)Cn2c(=O)n(-c3ccccc3)c(=O)c3ccc(C(=O)NCc4ccc5c(c4)OCO5)cc32)cc1 -3.26%
CC(=O)c1cccc(NC(=O)CN2C(=O)c3cccnc3Sc3ccccc32)c1 -5.62%
CCN1CCOC(=O)C1CC(=O)Nc1ccc(C(C)=O)cc1 (stereo not given) 31%
COc1cc(CN(C(=O)c2ccc(OC(C)C)cc2)C2CCS(=O)(=O)C2)cc(OC)c1OC (stereo not given) -12.3%
CCc1ccccc1NC(=O)c1sc2nc3n(c(=O)c2c1C)CCC3 -12.4%
Cc1ccccc1OCc1ccc(-c2nc(C#N)c(N3CCN(c4ccccc4)CC3)o2)o1 -22.1%
CCOc1ccc(CNC(=O)c2ccc(NC(=O)N3CCSc4ncccc43)cc2)cc1OC 1.47%
COc1cccc(Cn2c(C)c(CNCc3ccccc3Cl)c(C(=O)O)c2C)c1 10.7%
CN(C)c1cc2c(cc1NC(=O)c1ccc(F)cc1)n(C)c(=O)n2C -9.7%
N#CC1(c2ccc(F)cc2)CCC(=O)CC1 -6.82%
CCc1ccc(-c2cc(C)no2)cc1S(=O)(=O)Nc1ccc(C)cn1 -10.4%
CNC(=O)C1CCN(Cc2cc3ccccc3n2Cc2cccc(C)c2)CC1 -1.46%
CC(C)CCNC(=O)C1CCN(S(=O)(=O)c2cccc3nsnc23)CC1 10.4%
Cc1cccc(-c2nnn3c2nc(NCc2ccccc2)c2ccccc23)c1 34.2%
CCCC(CCC)C(=O)Nc1cccc(-c2nc3cccnc3s2)c1 -8.88%
CCc1ccccc1NC(=O)N1CCC2(CC1)Oc1ccccc1C(=O)N2Cc1ccccc1F -16.7%
COc1ccc(CCN2C(=O)N(c3ccc(F)cc3)C(=O)C2CC(=O)Nc2ccc(OC)cc2)cc1 (stereo not given) 27.8%
CCOc1ccc(C(=O)NCC(c2ccc3c(c2)OCO3)N2CCN(c3ccc(F)cc3)CC2)cc1 (stereo not given) -19.3%
CCCCC1C(=O)N(c2ccccc2)N(c2ccccc2)C1=O -12.7% and -28.4%
Cc1ccc(-n2nc3c(N4CCC(C(=O)NCCc5ccccc5C)CC4)nnc(C)c3c2C)cc1 -15.9%
Cc1ccc(CN2CCN(C3CCN(C(=O)c4ccc(C)cc4)CC3)C(=O)C2=O)cc1 -4.22%
CC1CCN(Cc2c(O)ccc3c(=O)c(-c4ccc(Cl)cc4)c(C(F)(F)F)oc23)CC1 -37.9%
CC(C)(C)c1cc(C(C)(C)C)c2oc(=O)c(-c3nc4ccc(C(=O)O)cc4[nH]3)cc2c1 3.72%
COc1cc(OC)c(NC(=O)N2CCN3CCCCC3C2)cc1Cl (stereo not given) -17.4%
CC(=O)N1CCc2cc(S(=O)(=O)NC(CC(C)C)C(=O)NCCc3ccccc3)ccc21 (stereo not given) 11.9%
CCOC(=O)c1ccccc1NC(=O)CSc1cc(C)[nH]c(=O)n1 -5.04%
COc1ccc(Cl)cc1NC(=O)CCN1C(=O)c2ccccc2Sc2ncccc21 -7.45%
CC(C)C(=O)N1c2nc(C(C)C)nn2C2(CCCCC2)[C@@H]2CCCC[C@@H]21 -9.56%
COc1ccc(OC)c(Nc2ncc3c(n2)CCN(Cc2cc(OC)c(OC)c(OC)c2)C3)c1 7.53%
COc1cc(-c2nnc(SCC(=O)Oc3ccccc3)o2)cc(OC)c1OC -9.91%
Cc1ccc(Nc2nc3ccccc3c3nnc(C)n23)cc1Cl -37.6%
O=C(c1ccc2c(c1)CCN2S(=O)(=O)c1ccc(Cl)cc1)N1CCN(c2ccccc2)CC1 -12%
COc1ccc(OC)c(CNC(=O)c2c(C)oc3ncn(C)c(=O)c23)c1 -6.6%
COc1ccc(N2CC(NC(=O)c3ccco3)CC2=O)cc1OC (stereo not given) -5.54%
CCOc1ccc(CN2C(=O)c3ccccc3Sc3ccc(C(=O)OC)cc32)cc1 -24.9%
COc1ccc(CNC(=O)c2ccc3c(c2)N(Cc2ccccc2C)C(=O)c2ccccc2S3=O)cc1 (stereo not given) -32%
O=C(NCc1ccc(F)cc1)C1CCN(c2ncnc3c2nc2n3CCCCC2)CC1 -1.06%
Nc1ccccc1N -24.4%
COc1ccc(CNc2oc(/C=C/c3cccc(OC)c3)nc2C#N)cc1 -2.96%
CN(Cc1ccccc1)C(=O)c1cccc(NC(=O)c2nsc3ccccc23)c1 -17.6%
COc1cc(C(CC(=O)Nc2cc(C)ccc2C)N2Cc3ccccc3C2=O)cc(OC)c1OC (stereo not given) 15.3%
Cc1ccc2nc(-c3ccncc3)c(Nc3ccc(C(C)C)cc3)n2c1 -26%
CCOC(=O)c1[nH]c(C)c(CCC(=O)N2CCN(c3cccc(C)c3C)CC2)c1C -20.5%
CCOCCCNC(=O)c1cn(CC)c2ccc(S(=O)(=O)N3CCc4ccccc4C3)cc2c1=O 3.07%
CC(C)(C)OC(=O)N1CCC(c2c(C(=O)N3CCN(c4ccccn4)CC3)cnn2-c2ccccc2Cl)CC1 -21.3%
CC(=O)c1ccc(NC(c2ccc(F)cc2)c2nnc(-c3ccccc3)o2)cc1 (stereo not given) -12.3%
CCOCCc1nn2c(=O)cc(COC(=O)CNC(=O)c3ccc(F)cc3)nc2s1 -11%
Cc1ccc(CSc2nc(-c3ccc(C(C)(C)C)cc3)nc3cc(=O)[nH]n23)cc1 21.2%
CCc1ccc(Nc2sc(C(=O)c3ccccc3)c(N)c2S(C)(=O)=O)cc1 -50%
CCN(CC)CCCNC(=O)CSc1nc2nc(C)c(Cc3c(F)cccc3Cl)c(C)n2n1 0.772%
CCc1ccc(-n2nc(CO)c(C(=O)NCC(c3ccccc3)c3ccccc3)n2)cc1 -21.9%
Cc1ccc(N(Cc2cc3ccccc3[nH]c2=O)C(=O)c2cccc(Cl)c2)cc1 -19.5%
O=C(O)Cc1ccc(O)c(O)c1 -5.58%
Cc1ccc(-c2cn3c(n2)sc2cc(C(=O)NCc4cccs4)ccc23)c(C)c1 -5.19%
CC(C)NC(=O)C(c1ccccc1)N1Cc2ccccc2C1=O (stereo not given) -16.6%
COc1ccc(Cn2ccc3nc(C)c(C(=O)N4CCN(c5ccccc5OC)CC4)cc3c2=O)cc1 -1.27%
CC(C)c1ccc2occ(CC(=O)Nc3ccccc3Cl)c2c1 -3.21%
COc1ccc(OCC2c3cc(OC)c(OC)cc3CCN2C(=O)COc2ccc(Cl)cc2Cl)cc1 (stereo not given) -11.6%
COc1ccc(-c2noc(CSc3nc(C)cc(=O)[nH]3)n2)cc1OC -6.05%
Cc1ccc(CSc2nnc(-n3c(=O)c(C#N)cc4c(=O)n5cc(C)ccc5nc43)s2)cc1 7.63%
CCCc1nc2c(C)cc(-c3nc4ccccc4n3C)cc2n1Cc1ccc(-c2ccccc2C(=O)O)cc1 -18.1%
Cc1ccc(C)c(NC(=O)Cn2c(=O)n(Cc3ccc4c(c3)OCO4)c(=O)c3oc4ccccc4c32)c1 -15.5%
CC1=C(C(N)=O)C(c2cccc(C)c2)n2nc(-c3cccc(C)c3)nc2N1 (stereo not given) -19.4%
CCCCOC(=O)c1ccc(O)cc1 -0.477%
CCOC(=O)C1CCN(S(=O)(=O)c2ccc(N3CCCCS3(=O)=O)cc2)CC1 4.89%

activation, active:
CCc1ccccc1Nc1ncnc2c1cnn2-c1ccc(Cl)cc1 73.1%
CC(=O)Nc1ccc(NS(=O)(=O)c2ccc3[nH]c4c(c3c2)CCCCC4)cc1 80%
Cc1cc(C)c2c(=O)cc(CSc3nnc(-c4ccccc4)n3C)[nH]c2c1 60.7%
CC(=O)Nc1ccc(S(=O)(=O)NCc2cccn2Cc2cccc(C)c2)cc1 87.9%
CCOc1ccc(CC(=O)NCCc2csc(-c3ccc(Cl)cc3)n2)cc1 87.7%
